According to PubChem BioAssay AID504832 (National Center for Advancing Translational Sciences (NCATS), 2011):
Hit rate of the full screen: of about 310,000 compounds, about 18,000 (5.8%) were called active. The shares of active, inactive and inconclusive entries below differ from those in the screen. Calls follow the shape of the dose curve; as a rule, active = well fitted inhibition curve with a large enough effect; inconclusive = small, poorly fitted or top-dose-only effect, or another doubt; inactive = no such curve, though single readings can be large or run the other way. Potencies of inconclusive entries are left out as doubtful fits.
Potency is read from the fitted curve at half-maximal effect; tags tell the direction and shape of the fitted curve.

Assay: Primary qHTS for delayed death inhibitors of the malarial parasite plastid, 48 hour incubation
Details: P. falciparum luciferase growth in erythrocytes; series mostly up to 28.7 µM
Procedure, shortened: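 Read-out is firefly luciferase luminescence from an integrated reporter in P. falciparum, so falling signal marks reduced parasite growth. Infected erythrocytes were at 2% hematocrit and 0.1% parasitemia (final) in Albumax-supplemented RPMI 1640.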
For `CCN(CC(=O)Nc1ccc(OC)cc1)C(=O)CSCc1ccc(C)cc1`, the Potency was inconclusive [inhibitor, single point]. For `CCc1cccc(NC(=O)Nc2cccs2)c1`, the Potency was inconclusive [inhibitor, full curve]. In the case of `CCNS(=O)(=O)c1ccc(CCC(=O)Nc2ccc3c(c2)OCCO3)cc1`, the Potency is reported as active: 9.28 µM. With `C=CCn1c(=O)c2ccccc2n2c(SC(C)C(N)=O)nnc12` (centres undefined) the Potency was “inactive”. With `COc1ccc(N(C(=O)CCl)C(C(=O)NC2CCCCC2)c2cccnc2)cc1` (centres undefined) the Potency was inconclusive [inhibitor, single point]. With `COc1ccccc1NS(=O)(=O)c1cccc(C(=O)NCC(c2cccs2)N2CCOCC2)c1` (centres undefined) the Potency was inconclusive [inhibitor, partial curve]. With `CN(C)S(=O)(=O)c1ccc(NC(=O)CN2CCCC2c2ccc3c(c2)OCCCO3)cc1` (centres undefined) the Potency was inconclusive [inhibitor, single point]. In the case of `c1ccc2c(c1)CCc1c-2nc2ccccc2c1N1CCOCC1`, the Potency is reported as active: 14.7 µM. In the case of `CC1CN(C(=O)CN2C(=O)NC3(CCCC3)C2=O)C(=Nc2cccc(S(=O)(=O)N(C)C)c2)S1` (centres undefined), the Potency is reported as inconclusive [inhibitor, partial curve]. In the case of `CN(C1CCCCC1)C(CNS(=O)(=O)c1ccc(Cl)cc1)c1ccccc1` (centres undefined), the Potency is reported as inconclusive [inhibitor, single point]. For `CC1CCc2sc(NC(=O)C3CC(Cl)=CCC3C(=O)O)c(C#N)c2C1` (centres undefined), the Potency was “inactive”. In the case of `Cc1cccc(NNC(=S)Nc2c(C)cccc2C)c1`, the Potency is reported as inconclusive [inhibitor, single point]. With `CC1(C)Cc2c(sc3nc(SCC(=O)N4CCOCC4)nc(N)c23)CO1` the Potency was “inactive”. For `COC(=O)c1sc(=S)sc1C(=O)OC`, the Potency was “inactive”. In the case of `CCN(CC)Cc1ccccn1`, the Potency is reported as inconclusive [inhibitor, full curve, poor fit]. With `CN(C)S(=O)(=O)c1ccc2c(c1)nc(CCC(=O)NCC1CCCCC1)n2C` the Potency was inconclusive [inhibitor, single point]. With `Cc1cc(C)c(S(=O)(=O)N2CCc3ccccc32)c(C)c1` the Potency was inconclusive [inhibitor, partial curve, poor fit]. In the case of `O=C(CN1CCOCC1)Nc1ccc(OCc2ccccc2)cc1`, the Potency is reported as inconclusive [inhibitor, single point]. With `COc1cc(CNc2nc(C)c([N+](=O)[O-])c(C)c2C#N)cc(OC)c1OC` the Potency was “inactive”. With `Cc1c2c(n3c(nc4ccccc43)c1C#N)N(CCN1CCOCC1)CC2` the Potency was inconclusive [inhibitor, single point]. In the case of `COc1ccc([C@@H]2[C@@H]3C(=O)N(C(C)(C)C)C(=O)[C@@H]3[C@]3(Cc4ccc(Cl)cc4)C(=O)N(c4cccc(C)c4)C(=O)N23)cc1`, the Potency is reported as inconclusive [inhibitor, partial curve, poor fit]. In the case of `O=C1C(Cl)=C(NCCN2CCOCC2)C(=O)c2ccccc21`, the Potency is reported as inconclusive [inhibitor, single point]. In the case of `Cc1ccccc1NC(=O)CC1(c2ccc(N(C)C)cc2)C(=O)c2ccccc2C1=O`, the Potency is reported as inconclusive [inhibitor, partial curve, poor fit]. With `CSc1nc2cc(S(=O)(=O)N3CCCCC3)ccc2s1` the Potency was “inactive”. With `CCOC(=O)N/N=C(\CCC(=O)O)c1cccs1` the Potency was “inactive”. With `Cc1ccc(NC(=O)C2CC(=O)N(Cc3ccccc3)C2)cc1S(=O)(=O)N1CCCCCC1` (centres undefined) the Potency was inconclusive [inhibitor, partial curve]. With `CCCCS(=O)CC(COc1ccc(Cl)cc1)OC(=O)c1ccccc1` (centres undefined) the Potency was inconclusive [inhibitor, single point]. With `CCOc1ccc(-c2nnc(-c3snc(-c4ccc(F)cc4)c3N=CN(C)C)o2)cc1` the Potency was “inactive”. For `Cc1cc(=O)oc2cc(OCC(=O)NC3CCCCC3)ccc12`, the Potency was “inactive”. For `CCN(c1cccc(C)c1)S(=O)(=O)c1nnc(NC(=O)c2ccco2)s1`, the Potency was “inactive”. With `Cc1ccccc1NC(=O)OCc1cccnc1Sc1ccc(Cl)cc1` the Potency was inconclusive [inhibitor, single point]. In the case of `C/C(=N\NC(=O)c1ccc(Cl)cc1)c1ccccn1`, the Potency is reported as inconclusive [inhibitor, full curve]. In the case of `COc1ccc(Cn2c(C(C)C)nc3sc4ccccc4c(=O)c3c2=O)cc1`, the Potency is reported as inconclusive [inhibitor, single point]. In the case of `CCCOc1ccc(-c2nc3c(c(=O)[nH]c(=O)n3Cc3ccccc3)n2CCO)cc1OCC`, the Potency is reported as inconclusive [inhibitor, single point]. In the case of `CCOC(=O)N1CCN(CCC(=O)Nc2ccc(OC(F)(F)F)cc2)CC1`, the Potency is reported as inconclusive [inhibitor, partial curve, poor fit]. In the case of `COC(=O)c1ccc(Cn2nnc3c(=O)[nH]c(C4CCN(S(=O)(=O)c5ccc(F)cc5)CC4)nc32)cc1`, the Potency is reported as inconclusive [inhibitor, single point]. For `C/C(CC(=O)NCCN1CCOCC1)=N\NC(=O)c1ccncc1`, the Potency was “inactive”. With `Cc1nnc(SCC(=O)Nc2nc(-c3ccccc3)cs2)n1N` the Potency was “inactive”. For `Cc1cc2cc(CNC(=O)c3ccc(Br)o3)ccc2n1C`, the Potency was inconclusive [inhibitor, single point]. With `Cc1ccc2cc(CCNC(=O)C(=O)c3c[nH]c4ccccc34)c(=O)[nH]c2c1` the Potency was active: 9.28 µM. For `C/C=C\C=C/C(=O)Nc1cccc(C2=NOC3(C2)C[C@@H](C(N)=O)N(C(=O)COc2ccc(Cl)cc2)C3)c1` (some centres undefined), the Potency was inconclusive [inhibitor, single point]. With `Cc1cccc(N(Cc2cc3cc(C)ccc3[nH]c2=O)C(=O)c2cccs2)c1` the Potency was active: 13.1 µM. In the case of `CC(=O)OCC1=C(C(=O)O)N2C(=O)C(NC(=O)C(C)Cn3cc(Cl)cn3)C2SC1` (centres undefined), the Potency is reported as inconclusive [inhibitor, single point]. With `COC(=O)C(C)N(C(=O)c1cccc2ccccc12)c1c(C)cccc1C` (centres undefined) the Potency was active: 14.7 µM. With `COc1ccc(C(=O)C2CCCN(Cc3ccc(C)s3)C2)cc1OC` (centres undefined) the Potency was inconclusive [inhibitor, single point]. In the case of `COc1c(OC)c(O)c2c(=O)cc(-c3c(O)cccc3O)oc2c1OC`, the Potency is reported as inconclusive [inhibitor, partial curve, poor fit]. With `COc1ccccc1NC(=O)/C(C#N)=C/c1ccc(OCCN2CCOCC2)c(OC)c1` the Potency was “inactive”. With `CCNC(=S)NNC(=O)c1ccccc1Cl` the Potency was “inactive”. In the case of `CC(Sc1nc(-c2ccccc2)cc(C(F)(F)F)n1)C(=O)NCc1ccco1` (centres undefined), the Potency is reported as inconclusive [inhibitor, single point]. With `Cc1cc(=O)oc2c3c(cc(OCC(=O)N4CCC[C@H]4C(=O)O)c12)OC(C)(C)CC3` the Potency was inconclusive [inhibitor, partial curve]. In the case of `Fc1cccc(CSc2nc3ncccc3[nH]2)c1`, the Potency is reported as inconclusive [inhibitor, partial curve, poor fit]. With `COc1ccc(CN(Cc2cccn2C)C(=O)c2cc3cc(OC)ccc3[nH]2)cc1` the Potency was inconclusive [inhibitor, single point]. For `Cc1ccc(S(=O)(=O)N2CCCC(C(=O)N(Cc3cccs3)C3CC3)C2)cc1` (centres undefined), the Potency was active: 5.22 µM. In the case of `CC(C)(C)n1ncc2c(=O)n(Cc3ccccc3Br)cnc21`, the Potency is reported as active: 2.94 µM. With `CC(C)Oc1ccc(CNC(=O)c2cc(S(=O)(=O)N3CCOCC3)cn2C)cc1` the Potency was “inactive”. For `COc1ccc(N(CC(=O)Nc2cc(C)ccc2C)S(=O)(=O)c2c(C)noc2C)cc1`, the Potency was inconclusive [inhibitor, single point]. With `O=C(Oc1cccc(Cl)c1)N1CCOCC1` the Potency was “inactive”. For `CCOc1ccc(N(CC)C(=O)c2nn(-c3ccc(OC)cc3)c(=O)c3c2c2ccccc2n3C)cc1`, the Potency was active: 1.47 µM. For `Cc1ccc(/C=N/NC(=O)c2cc3ccccc3cc2O)o1`, the Potency was active: 0.586 µM. With `CC(=O)OCCN(CCCn1c(-c2ccncc2)nc2ccccc21)c1nc(-c2ccc(C)cc2)cs1` the Potency was inconclusive [inhibitor, partial curve, poor fit]. For `O=C(COc1coc(CN2CCCc3ccccc32)cc1=O)Nc1cccc([N+](=O)[O-])c1`, the Potency was inconclusive [inhibitor, partial curve]. For `COC(=O)c1ccc(-n2c(CCC(=O)O)ccc2-c2ccccc2)cc1`, the Potency was “inactive”. For `CCc1oc2c(C)c(O)ccc2c(=O)c1-c1ccc2ccccc2n1`, the Potency was inconclusive [inhibitor, full curve]. For `COc1ccc(CNC(=O)C(c2ccncc2)N(C(=O)Cc2cccs2)c2ccccc2C)cc1` (centres undefined), the Potency was inconclusive [inhibitor, single point]. With `CC1Cc2ccccc2N1S(=O)(=O)c1cccs1` (centres undefined) the Potency was inconclusive [inhibitor, single point]. For `CC1CCC(C(C)C)C(OCC(O)CN2CCCC(C)C2)C1` (centres undefined), the Potency was inconclusive [inhibitor, partial curve, poor fit]. For `O=C(CCCOc1ccc(Cl)cc1Cl)N/N=C/c1ccccc1O`, the Potency was inconclusive [inhibitor, single point]. In the case of `COc1ccccc1CCC(=O)NCCCn1ccc2ccccc21`, the Potency is reported as inconclusive [inhibitor, full curve, poor fit]. For `COc1ccc(CN(C(=O)CCC(=O)Nc2cc(C)on2)C(C(=O)NC(C)(C)C)c2cccc(OC)c2OC)cc1` (centres undefined), the Potency was inconclusive [inhibitor, single point].
